{"source": "patent US20150299754A1", "about": "“STREPTOMYCES MICROFLAVUS STRAINS AND METHODS OF THEIR USE TO CONTROL PLANT DISEASES AND PESTS” (Bayer CropScience LP, priority 2014, published 2015)", "key": {"[1]": {"system": "wild-type spider mites (Tetranychus urticae strain RW)", "experiment": "Activity against wild-type spider mites on French bean", "experimental": "(§1) A study was performed to determine the activity of NRRL B-50550 against abamectin-resistant spider mites (Tetranychus urticae strain NL), as compared to wild-type spider mites (Tetranychus urticae strain RW). French bean plants were treated with a wettable powder of a fermentation product of NRRL B-50550 prepared as described in the last paragraph of Example 9, at the rates shown in Table 15 below after dilution. Plants were infested one day prior to treatment with 50-100 of either strain NL or RW, and assessed for the presence of mites seven and fourteen days after treatment."}, "[2]": {"system": "abamectin-resistant spider mites (Tetranychus urticae strain NL)", "experiment": "Activity against abamectin-resistant spider mites on French bean", "experimental": "as §1"}}, "data": [{"substance": "Abamectin", "values": [{"measurement": "7 days Wild Type Mites (% control)", "setting": "[1]; 0.16 ppm", "result": 99, "unit": "%"}, {"measurement": "14 days Wild Type Mites (% control)", "setting": "[1]; 0.16 ppm", "result": 100, "unit": "%"}, {"measurement": "7 days Wild Type Mites (% control)", "setting": "[1]; 0.8 ppm", "result": 100, "unit": "%"}, {"measurement": "14 days Wild Type Mites (% control)", "setting": "[1]; 0.8 ppm", "result": 100, "unit": "%"}, {"measurement": "7 days Wild Type Mites (% control)", "setting": "[1]; 4 ppm", "result": 100, "unit": "%"}, {"measurement": "14 days Wild Type Mites (% control)", "setting": "[1]; 4 ppm", "result": 100, "unit": "%"}, {"measurement": "7 days Wild Type Mites (% control)", "setting": "[1]; 20 ppm", "result": 100, "unit": "%"}, {"measurement": "14 days Wild Type Mites (% control)", "setting": "[1]; 20 ppm", "result": 100, "unit": "%"}, {"measurement": "7 days Resistant Mites (% control)", "setting": "[2]; 0.16 ppm", "result": 0, "unit": "%"}, {"measurement": "14 days Resistant Mites (% control)", "setting": "[2]; 0.16 ppm", "result": 0, "unit": "%"}, {"measurement": "7 days Resistant Mites (% control)", "setting": "[2]; 0.8 ppm", "result": 80, "unit": "%"}, {"measurement": "14 days Resistant Mites (% control)", "setting": "[2]; 0.8 ppm", "result": 0, "unit": "%"}, {"measurement": "7 days Resistant Mites (% control)", "setting": "[2]; 4 ppm", "result": 99, "unit": "%"}, {"measurement": "14 days Resistant Mites (% control)", "setting": "[2]; 4 ppm", "result": 80, "unit": "%"}, {"measurement": "7 days Resistant Mites (% control)", "setting": "[2]; 20 ppm", "result": 99, "unit": "%"}, {"measurement": "14 days Resistant Mites (% control)", "setting": "[2]; 20 ppm", "result": 99, "unit": "%"}]}]}
